# The other results are listed elsewhere or left out. Single values are uncertain, as repeats are few or missing.
# Columns and labels:
# Assay in all cases: cell count relative to DMSO control; melanoma cells; higher = more viable cells
# Details in all cases: library dose: standard library concentration; 72 h
# 501Mel = tested on: 501Mel
# A101D = tested on: A101D
# A2058 = tested on: A2058
# A375 = tested on: A375
# 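Further: cells treated in 1,536-well plates, then fixed and DAPI-stained, with nuclei counted from automated high-throughput microscope images.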
SMILES,cell count (501Mel) [%],cell count (A101D) [%],cell count (A2058) [%],cell count (A375) [%]
"COc1cc(Nc2ncc(F)c(Nc3ccc4c(n3)NC(=O)C(C)(C)O4)n2)cc(OC)c1OC [Tamatinib] + O=C(Oc1ccc([N+](=O)[O-])cc1)N1CCC(C(O)(c2ccc3c(c2)OCO3)c2ccc3c(c2)OCO3)CC1 [JZL184] (first compound 2 µM, partner dose 5 µM)",75.7,45.8,89.8,89.8
"Nc1ncn([C@H]2C[C@H](O)[C@@H](CO)O2)c(=O)n1 [decitabine] + C/C(O)=C(\C#N)C(=O)Nc1cc(Br)ccc1Br [LFM-A13] (first compound 0.5 µM, partner dose 10 µM)",111,79.1,70.1,87.8
"O=C(Nc1cc(C(F)(F)F)cc(C(F)(F)F)c1)c1cc(Cl)ccc1O + Cc1cc(SCc2sc(-c3ccc(C(F)(F)F)c(F)c3)nc2C)ccc1OCC(=O)O [GW0742] (first compound 0.08 µM, partner dose 10 µM)",113,79.8,138,131
"O=C(Oc1ccc([N+](=O)[O-])cc1)N1CCC(C(O)(c2ccc3c(c2)OCO3)c2ccc3c(c2)OCO3)CC1 + Cn1cc(/C=C2\C(=O)Nc3cccnc32)c2ccccc21 [GW441756] (first compound 5 µM, partner dose 2 µM)",92.3,82.6,103,110
"OCCn1cc(-c2cnc3nnn(Cc4ccc5ncccc5c4)c3n2)cn1 + Cc1cc(SCc2sc(-c3ccc(C(F)(F)F)c(F)c3)nc2C)ccc1OCC(=O)O [GW0742] (first compound 5 µM, partner dose 10 µM)",73.5,111,96.4,93.2
"OCc1c[nH]c2ccccc12 [Indole-3-carbinol] + Cc1cc(SCc2sc(-c3ccc(C(F)(F)F)c(F)c3)nc2C)ccc1OCC(=O)O [GW0742] (first compound 4 µM, partner dose 10 µM)",113,109,125,115
"CNC(=O)c1cc(Oc2ccc(NC(=O)Nc3ccc(Cl)c(C(F)(F)F)c3)cc2)ccn1 [sorafenib] + Cc1cc(SCc2sc(-c3ccc(C(F)(F)F)c(F)c3)nc2C)ccc1OCC(=O)O [GW0742] (first compound 2 µM, partner dose 10 µM)",88.3,95,108,130
"COc1cc([C@@H]2c3cc4c(cc3[C@@H](O[C@@H]3O[C@@H]5CO[C@@H](C)O[C@H]5[C@H](O)[C@H]3O)[C@H]3COC(=O)[C@H]23)OCO4)cc(OC)c1O [etoposide] + Cc1cc(SCc2sc(-c3ccc(C(F)(F)F)c(F)c3)nc2C)ccc1OCC(=O)O [GW0742] (first compound 0.1 µM, partner dose 10 µM)",97.6,81.6,66.6,79.1
"CN(C)S(=O)(=O)c1ccc2c(c1)/C(=C/c1cc3c([nH]1)CCCC3)C(=O)N2 + Cc1cc(SCc2sc(-c3ccc(C(F)(F)F)c(F)c3)nc2C)ccc1OCC(=O)O [GW0742] (first compound 2 µM, partner dose 10 µM)",69.1,76.6,98.7,201
"Cc1cc(Nc2cc(N3CCN(C)CC3)nc(/C=C/c3ccccc3)n2)n[nH]1 + C/C(O)=C(\C#N)C(=O)Nc1cc(Br)ccc1Br [LFM-A13] (first compound 0.2 µM, partner dose 10 µM)",87.3,77.3,85.8,75.5
"COc1cc([C@@H]2c3cc4c(cc3[C@@H](O[C@@H]3O[C@@H]5CO[C@@H](C)O[C@H]5[C@H](O)[C@H]3O)[C@H]3COC(=O)[C@H]23)OCO4)cc(OC)c1O [etoposide] + O=C(Oc1ccc([N+](=O)[O-])cc1)N1CCC(C(O)(c2ccc3c(c2)OCO3)c2ccc3c(c2)OCO3)CC1 [JZL184] (first compound 0.1 µM, partner dose 5 µM)",77.6,68.2,80.6,78.8
"N#CC[C@H](C1CCCC1)n1cc(-c2ncnc3[nH]ccc23)cn1 [ruxolitinib] + C/C(O)=C(\C#N)C(=O)Nc1cc(Br)ccc1Br [LFM-A13] (first compound 5 µM, partner dose 10 µM)",141,106,76,124
"NC(=O)Nc1cc(-c2cccc(F)c2)sc1C(=O)N[C@H]1CCCNC1 + Cc1cc(SCc2sc(-c3ccc(C(F)(F)F)c(F)c3)nc2C)ccc1OCC(=O)O [GW0742] (first compound 0.1 µM, partner dose 10 µM)",104,75,80.6,56.1
"COc1ccc2c(c1)CCC1C2CCC2(C)C(NCCCCCCN3C(=O)C=CC3=O)CCC12 (stereo not given) + Cc1cc(SCc2sc(-c3ccc(C(F)(F)F)c(F)c3)nc2C)ccc1OCC(=O)O [GW0742] (first compound 2 µM, partner dose 10 µM)",81.4,79.1,77,85.3
"O=S(=O)(c1ccccc1)N(CC(F)(F)F)c1ccc(C(O)(C(F)(F)F)C(F)(F)F)cc1 + C/C(O)=C(\C#N)C(=O)Nc1cc(Br)ccc1Br [LFM-A13] (first compound 7 µM, partner dose 10 µM)",98.2,79.1,109,86.1
"Nc1nc(F)nc2c1ncn2[C@@H]1O[C@H](CO)[C@@H](O)[C@@H]1O [fludarabine] + O=C(Oc1ccc([N+](=O)[O-])cc1)N1CCC(C(O)(c2ccc3c(c2)OCO3)c2ccc3c(c2)OCO3)CC1 [JZL184] (first compound 1 µM, partner dose 5 µM)",2.37,97.7,95.3,58.1
"Cc1cc(SCc2sc(-c3ccc(C(F)(F)F)c(F)c3)nc2C)ccc1OCC(=O)O + O=C(Oc1ccc([N+](=O)[O-])cc1)N1CCC(C(O)(c2ccc3c(c2)OCO3)c2ccc3c(c2)OCO3)CC1 [JZL184] (first compound 10 µM, partner dose 5 µM)",77.6,93.4,104,101
"O=C(O)c1ccc(-c2c[nH]c3ncc(-c4ccccc4)cc23)cc1C1CCCC1 + O=C(Oc1ccc([N+](=O)[O-])cc1)N1CCC(C(O)(c2ccc3c(c2)OCO3)c2ccc3c(c2)OCO3)CC1 [JZL184] (first compound 0.8 µM, partner dose 5 µM)",77.6,90.6,95.2,99.2
"NCC(=O)Nc1ccc(-n2nc(C(F)(F)F)cc2-c2ccc3c(ccc4ccccc43)c2)cc1 + O=C(Oc1ccc([N+](=O)[O-])cc1)N1CCC(C(O)(c2ccc3c(c2)OCO3)c2ccc3c(c2)OCO3)CC1 [JZL184] (first compound 5 µM, partner dose 5 µM)",11.1,89.4,97.7,52.2
"C/C(O)=C(\C#N)C(=O)Nc1cc(Br)ccc1Br + c1cc(-c2cnn3cc(-c4ccc(OCCN5CCCCC5)cc4)cnc23)ccn1 [Dorsomorphin] (first compound 10 µM, partner dose 2 µM)",50.7,91,87.1,97.1
"COc1ccc(C2=N[C@@H](c3ccc(Cl)cc3)[C@@H](c3ccc(Cl)cc3)N2C(=O)N2CCNC(=O)C2)c(OC(C)C)c1 [Nutlin-3] + O=C(Oc1ccc([N+](=O)[O-])cc1)N1CCC(C(O)(c2ccc3c(c2)OCO3)c2ccc3c(c2)OCO3)CC1 [JZL184] (first compound 0.5 µM, partner dose 5 µM)",71.2,70.7,92.5,66.3
"Cc1cc(SCc2sc(-c3ccc(C(F)(F)F)c(F)c3)nc2C)ccc1OCC(=O)O + Cc1cc([N+](=O)[O-])ccc1NS(=O)(=O)c1cc(Cl)ccc1Cl [FH535] (first compound 10 µM, partner dose 5 µM)",82.6,85.9,104,94.1
"COc1cc2c(Oc3ccc4[nH]c(C)cc4c3F)ncnc2cc1OCCCN1CCCC1 [cediranib] + Cc1cc(SCc2sc(-c3ccc(C(F)(F)F)c(F)c3)nc2C)ccc1OCC(=O)O [GW0742] (first compound 2 µM, partner dose 10 µM)",101,86.5,105,152
"N#Cc1c(O)c2c(-c3ccc(-c4ccccc4O)cc3)csc2[nH]c1=O + Cc1cc(SCc2sc(-c3ccc(C(F)(F)F)c(F)c3)nc2C)ccc1OCC(=O)O [GW0742] (first compound 10 µM, partner dose 10 µM)",83.9,109,91.8,137
"O=C(/C=C/c1cccnc1)NCCCCC1CCN(C(=O)c2ccccc2)CC1 + C/C(O)=C(\C#N)C(=O)Nc1cc(Br)ccc1Br [LFM-A13] (first compound 0.05 µM, partner dose 10 µM)",84.5,75.8,113,120

# — the supplement of paper PMC4604168 (melanoma cell lines)
